Measurements as given in the supplement of paper PMC4166925.
± gives the standard deviation of the averaged measurements. In all, about 33,000 sequences were measured (“E-score (dimensionless, -0.5 to 0.5)”: median about -0.046, highest 2% from about 0.36 on). The list shows a part of the results.

test system: T1, SpTbr T-box DNA-binding domain (GST fusion); assay: PBM E-score of 8-mer (E-score (dimensionless, -0.5 to 0.5)); Tbr is Tbrain of the sea star Patiria miniata (Pm) or the sea urchin Strongylocentrotus purpuratus (Sp); higher = stronger binding preference; most listed sequences are background and not binding sites; settings: the construct has about 5 more residues each side
T1 sequence: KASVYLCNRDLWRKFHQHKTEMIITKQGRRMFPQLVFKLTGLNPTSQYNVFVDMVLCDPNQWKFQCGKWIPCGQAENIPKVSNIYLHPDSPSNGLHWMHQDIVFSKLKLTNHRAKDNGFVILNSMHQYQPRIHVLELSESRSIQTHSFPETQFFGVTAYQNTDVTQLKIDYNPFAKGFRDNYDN
Outline: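 GST-fused Tbr T-box DNA-binding domains (the whole T-box plus about five flanking residues) were expressed in BL21 E. coli at 20 °C and purified by glutathione affinity chromatography. Universal Agilent oligonucleotide arrays were made double-stranded by primer extension, incubated with 200 nM protein in PBS (pH 7.5), then scanned and quantified. Every ungapped 8-mer was scored from probe intensities. The Universal PBM Analysis Suite gave each word an enrichment E-score, averaged over duplicate arrays.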

Sequence | PBM E-score of 8-mer
CGAGATCC | 0.0984 ± 0.011
CACCTAAA | 0.3188 ± 0.00098
AAGCAGTA | -0.24 ± 0.015
CATGGTCA | -0.0299 ± 0.0084
GCGTAGCC | -0.273 ± 0.014
ATCGAGAA | 0.0629 ± 0.003
ACAATGGC | -0.145 ± 0.015
GTACTGAA | -0.166 ± 0.025
CTGGCCGA | -0.348 ± 0.077
CTGGCAGC | 0.062 ± 0.036
ACGCGTCC | 0.0966 ± 0.012
AGCATTTA | 0.0949 ± 0.041
AGACTTGC | 0.212 ± 0.06
CGGATCCC | -0.073 ± 0.1
ACGTCCCG | 0.00739 ± 0.056
GATTACCC | -0.187 ± 0.018
GATAGGCC | -0.178 ± 0.057
CAAAATCG | 0.0801 ± 0.0068
GACCCGAA | 0.14 ± 0.0097
CCTAAGGC | -0.1219 ± 0.0011
ACCATGCA | -0.145 ± 0.054
CAATCATG | 0.0291 ± 0.021

Sequence | PBM E-score of 8-mer
GATTCGCA | 0.327 ± 0.014
CAATCATC | -0.0123 ± 0.036
GCGAGACA | 0.0993 ± 0.03
AGTTCTGG | -0.228 ± 0.0063
ACCGCCAT | -0.0737 ± 0.066
AAGCCCAC | -0.0949 ± 0.035
CTTCGCCA | 0.273 ± 0.019
CCCAAACC | -0.37 ± 0.025
CAATAATA | -0.0063 ± 0.022
AAGTGGAA | -0.0162 ± 0.013
CAGCCTTA | -0.0359 ± 0.087
CGAACCTC | 0.0575 ± 0.03
ACTGGGCC | -0.262 ± 0.072
AACGGTGC | 0.239 ± 0.047
AGCACCGC | -0.0167 ± 0.064
AGCTGAAG | -0.206 ± 0.042
TCATTCAA | -0.246 ± 0.0059
GGAGTGAA | 0.248 ± 0.026
GTGTCGGA | 0.359 ± 0.00047
TAGAAGCA | -0.0879 ± 0.037
AGGTGTTG | 0.482 ± 0.0055
AACCATAA | -0.12 ± 0.028

Sequence | PBM E-score of 8-mer
ACCGCACC | 0.199 ± 0.0058
CTGAGGGA | -0.0861 ± 0.029
GCAGTTTA | 0.0494 ± 0.037
GTACGCAA | -0.222 ± 0.032
CCCGGCAC | 0.14 ± 0.021
CCCAAGTA | -0.0628 ± 0.047
CTAGCAGA | -0.0918 ± 0.062
AATCAAGG | -0.146 ± 0.052
GGGACCTA | -0.11 ± 0.03
CGCACACG | 0.211 ± 0.061
AGAGTCTA | -0.104 ± 0.066
ATTTAAAA | -0.123 ± 0.031
GTCAAGAA | -0.0862 ± 0.13
ATTGTGAC | 0.167 ± 0.017
CGCTACGA | -0.0527 ± 0.027
CGTGCCCC | -0.303 ± 0.033
CACAGGAG | -0.0284 ± 0.0074
CTCGAACC | -0.115 ± 0.043
CTGTGTGC | 0.000685 ± 0.012
TAACAGTA | 0.158 ± 0.025
ACAGTCAA | 0.109 ± 0.023
ACGTTACT | -0.111 ± 0.012

Sequence | PBM E-score of 8-mer
CATTGTCG | 0.038 ± 0.0095
AACACAAA | 0.0449 ± 0.075
TCAAAGCA | -0.0504 ± 0.042
GCGAGCTA | 0.164 ± 0.0096
AGAGTAAA | -0.0882 ± 0.073
ATAGTAAC | 0.0143 ± 0.031
GGACGCAA | 0.0148 ± 0.078
ATGCGTCC | -0.0633 ± 0.0099
ATAGTTCG | 0.113 ± 0.038
CTGTGAAA | 0.396 ± 0.017
CAGGCTAG | -0.0398 ± 0.0067
ACGCACGA | -0.0484 ± 0.054
CGTGTCAG | 0.25651 ± 0.00017
AAATTCCT | -0.168 ± 0.076
CCTCCAGC | -0.0602 ± 0.0064
ATATACAT | -0.135 ± 0.057
GAAACTAC | -0.0901 ± 0.0029
CATTGTAG | -0.0184 ± 0.0066
CTTGTTCC | -0.114 ± 0.067
ATTGTTTA | 0.0521 ± 0.14
GAACACTA | 0.013 ± 0.018
AGGTATTG | 0.00318 ± 0.078

Sequence | PBM E-score of 8-mer
ACGACCTC | 0.038 ± 0.0053
GCACAGAA | -0.123 ± 0.043
AGACGATC | -0.129 ± 0.039
ACTGGGAC | -0.299 ± 0.018
CCGGAGTA | -0.0192 ± 0.0016
CATACCAA | -0.0982 ± 0.029
CTGCGTTC | -0.226 ± 0.01
GCACAGCA | 0.0886 ± 0.048
AACAACGT | 0.00981 ± 0.00099
CCCGCGGG | 0.0848 ± 0.048
ATCGTCTG | -0.0889 ± 0.032
GGACCGTA | -0.169 ± 0.014
ACGTGCCA | 0.361 ± 0.033
GGCGGCCA | -0.156 ± 0.03
TATACTAA | -0.203 ± 0.029
ATATTCGG | -0.222 ± 0.048
ATTTACGC | 0.058 ± 0.12
GCTTGCTA | -0.156 ± 0.02
AGTTGAGA | 0.144 ± 0.083
GGCGCCAA | 0.36 ± 0.038
CGTCAGTC | -0.0269 ± 0.03
